The whole screen tested about 60,000 compounds, of which about 65 (0.1%) were called active. The inconclusive results got no clear call from the source; some entries with a clear call stand among them for comparison. Calls follow the shape of the dose curve; as a rule, active = well fitted inhibition curve with a large enough effect; inconclusive = small, poorly fitted or top-dose-only effect; inactive = no such curve, though single readings can be large or run the other way. Potencies of inconclusive entries are doubtful fits and often do not repeat.
Target: Ubiquitin carboxyl-terminal hydrolase 2 (Homo sapiens) (UniProt O75604)
Assay: qHTS Assay for Inhibitors of Ubiquitin-specific Protease USP2a; also: nearly all actives have a fitted effect of over 60% in size;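 as to activity change, negative = inhibition: plate controls were DMSO for no effect and NEM full inhibition control for full effect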
Details: USP2a enzymatic assay; Potency: qHTS inhibition; activity change, negative = inhibition: at 38.3 µM (top of the series)
In short: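 Coupled readout: USP2-cleaved Ub-PLA2 (20nM final) turns over NBD C6-HPC (20uM final), Ex 460nm/Em 535nm after 2.5 h, time-zero read flagging artifacts. Enzyme (20nM final, pH 8.0 Tris) given 30 min RT with compound first; NEM defines full inhibition.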
Potency is read from the fitted curve at half-maximal effect; tags tell the direction and shape of the fitted curve.

UniProt O75604, sequence (O75604 whole entry, looked up): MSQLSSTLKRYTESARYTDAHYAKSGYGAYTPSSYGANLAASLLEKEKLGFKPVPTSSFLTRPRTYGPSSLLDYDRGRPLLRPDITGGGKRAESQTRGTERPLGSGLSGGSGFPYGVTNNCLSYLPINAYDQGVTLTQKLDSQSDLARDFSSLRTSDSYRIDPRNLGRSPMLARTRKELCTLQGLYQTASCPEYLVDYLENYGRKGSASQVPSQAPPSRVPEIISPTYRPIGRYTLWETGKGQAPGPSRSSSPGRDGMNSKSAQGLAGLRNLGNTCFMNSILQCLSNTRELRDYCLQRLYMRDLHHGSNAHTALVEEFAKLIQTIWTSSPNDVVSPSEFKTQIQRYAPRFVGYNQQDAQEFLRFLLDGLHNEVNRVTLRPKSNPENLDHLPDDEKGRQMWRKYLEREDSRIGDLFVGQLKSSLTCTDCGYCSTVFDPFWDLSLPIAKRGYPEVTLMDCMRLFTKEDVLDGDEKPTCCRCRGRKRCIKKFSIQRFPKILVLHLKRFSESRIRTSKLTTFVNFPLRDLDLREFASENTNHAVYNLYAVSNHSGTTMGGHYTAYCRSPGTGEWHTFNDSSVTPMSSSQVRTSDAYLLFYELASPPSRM

| SMILES | Potency | activity change, negative = inhibition |
| --- | --- | --- |
| O=C1CCN(Cc2nnnn2CC2CCCO2)c2ccccc2N1 (stereo unspecified) | inconclusive: 25.1 µM [inhibitor, single point] | – |
| COC(=O)[C@@]1(C)CCC[C@@]2(C)c3ccc(O)c(C(C)C)c3CCC21 (stereo partly specified) | inconclusive: 25.1 µM [inhibitor, single point] | – |
| CN1CCN(c2nc(-c3ccccc3)c3cc(Cl)ccc3n2)CC1 | – | inactive: 38.8% |
| CCCOc1ccccc1-c1nc(SCCC(=O)O)n[nH]1 | inconclusive: 25.1 µM [inhibitor, single point] | – |
| COc1ccc(-c2cc(-c3cc(F)ccc3O)[nH]n2)cc1OC | inconclusive: 25.1 µM [inhibitor, single point] | – |
| Cc1cccc(NC(=O)Cn2nnc(-c3cccs3)n2)c1C | – | inactive: 10.3% |
| CCCCc1c(O)nc(SCC(=O)Nc2ccc3c(c2)CCC3)[nH]c1=O | inconclusive: 3.16 µM [inhibitor, single point] | – |
| COc1cccc(-c2nc(NCCc3c[nH]c4ccc(OC)cc34)c3ccccc3n2)c1 | inconclusive: 25.1 µM [inhibitor, single point] | – |
| O=C1c2c(O)cccc2Cc2cccc(O)c21 | inconclusive: 25.1 µM [inhibitor, single point] | – |
| CN(C)c1ccc(-c2nc(Nc3ccncc3)c3ccccc3n2)cc1 | inconclusive: 25.1 µM [inhibitor, single point] | – |
| O=C(NCc1ccc2c(c1)OCO2)c1ccncc1 | – | inactive: 4.8% |
| CCc1c(C)nc2cc(-c3cc(OC)cc(OC)c3)nn2c1N1CCCC1 | inconclusive: 25.1 µM [inhibitor, single point] | – |
| CC(=O)OCCN(Cc1ccccc1)Cc1ccc2c(c1)OCO2 | – | inactive: -5.41% |
| Cn1c(=O)c(C(=S)NC(=O)C2CC2)c(N)n(Cc2ccccc2)c1=O | inconclusive: 0.501 µM [inhibitor, full curve] | – |
| c1c2c(cc3sc(N4CCCCC4)nc13)OCCO2 | inconclusive: 12.6 µM [inhibitor, single point] | – |
| Cc1cccc(-c2nnc(SCc3nc4ccccc4[nH]3)n2Cc2ccco2)c1 | – | inactive: 45.6% |

| SMILES | Potency | activity change, negative = inhibition |
| --- | --- | --- |
| CC(C)(C=O)Cc1cc(C(C)(C)C)c(O)c(C(C)(C)C)c1 | inconclusive: 12.6 µM [inhibitor, partial curve] | – |
| COc1ccc(C2C(C#N)=C(N)Oc3n[nH]c(C)c32)cc1CN1CCN(c2ccc(F)cc2)CC1 (stereo unspecified) | – | inactive: 11% |
| c1ccc(-c2nc(-n3ccnc3)nc(-n3ccnc3)n2)cc1 | inconclusive: 25.1 µM [inhibitor, single point] | – |
| O=C(O)c1cc(O)c2c(c1)[C@H]([C@H]1c3cc(C(=O)O)cc(O)c3C(=O)c3c(O[C@@H]4OC(CO)C(O)C(O)C4O)cccc31)c1cccc(O[C@@H]3OC(CO)C(O)C(O)C3O)c1C2=O (stereo partly specified) | active: 12.6 µM | – |
| COc1ccc2[nH]cc(CCNc3ncnc4ccc(-c5ccccc5OC)cc34)c2c1 | inconclusive: 20 µM [inhibitor, single point] | – |
| Oc1ccc(/C=C\c2cc(O)cc(O)c2)cc1 | inconclusive: 10 µM [inhibitor, single point] | – |
| COc1ccccc1CNc1ncnc2ccc(-c3cccc(NS(C)(=O)=O)c3)cc12 | inconclusive: 20 µM [inhibitor, single point] | – |
| CCN(CC)c1ccc(C=Nc2ccc(C#N)cc2)c(O)c1 | inconclusive: 10 µM [inhibitor, single point] | – |
| COc1ccc(C2CC(C(F)(F)F)n3nc(C(=O)O)c(Cl)c3N2)cc1OC (stereo unspecified) | – | inactive: -5.88% |
| CC(=O)Oc1ccc(NC(=O)Cc2ccccc2)cc1 | – | inactive: -2.2% |
| COc1ccccc1CNc1ccnc(-c2ccc3c(c2)OCO3)n1 | inconclusive: 25.1 µM [inhibitor, single point] | – |
| Cc1ccc(C)c2[nH]c(=O)c(CN(Cc3ccco3)C(=O)Nc3ccccc3)cc12 | inconclusive: 25.1 µM [inhibitor, single point] | – |
| Cn1cccc1C(=O)N1CCC[C@@]2(CCN(c3ccncc3)C2)C1 | – | inactive: -0.285% |
| ON1C2CCCCC2N(O)C1c1c(F)c(F)c(F)c(F)c1F (stereo unspecified) | inconclusive: 10 µM [inhibitor, single point] | – |
| C=C(C)COc1ccc(-c2[nH]ncc2-c2ccccc2OC)c(O)c1 | inconclusive: 12.6 µM [inhibitor, single point] | – |

From PubChem BioAssay AID927 (National Center for Advancing Translational Sciences (NCATS), 2007)
